Experimental data taken from the supplement of paper PMC3334620.
Over roughly 33,000 sequences, “E-score (-0.5 to 0.5)” has its median near -0.01; the highest 2% begin near 0.26. This is one part of the list.

Biological target: Ste12 (UniProt P13574)
Experiment: PBM E-score (8-mer binding enrichment) (E-score (-0.5 to 0.5)); higher = stronger / more preferred TF binding; most listed sequences are background and not binding sites
Conditions: protein concentration: 200 nM; construct: GST-DNA-binding domain
Method in brief: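 Full-length yeast transcription factors or their DNA-binding domains, GST-tagged and expressed with PURExpress, were applied at about 100-200 nM to universal all-10-mer Agilent arrays. These arrays had been made double-stranded by primer extension on fresh or once-stripped slides. Detection used fluorescent anti-GST, normalisation used masliner, and E-scores for ungapped eight-base words pooled with reverse complements came from the Universal PBM Analysis Suite.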

Going from ATGTCTGG to CCTGTCGC, the “PBM E-score” value rises from 0.0356 to 0.0402.

Compared with AGAATTCT, AGGGAATG is lower in “PBM E-score” value: 0.191 for the first, -0.0251 for the second.

Compared with AGACAGTG, GCTGCACA is lower in “PBM E-score” value: -0.111 for the first, -0.276 for the second.

Compared with ACTTGAGG, CAAGGACG is lower in “PBM E-score” value: -0.153 for the first, -0.182 for the second.

Compared with ACCTAACA, GAAACGAC is higher in “PBM E-score” value: 0.0432 for the first, 0.317 for the second.

First: AAAAAAAC
Second: ACCCCGTA
The “PBM E-score” value of the first is higher: 0.331 for the first, 0.0615 for the second.

First: GACGAACA
Second: ATTCAAGA
The “PBM E-score” value of the first is lower: -0.0924 for the first, -0.0178 for the second.

Compared with AGTTGGGG, CAAAAGGA is lower in “PBM E-score” value: 0.00712 for the first, -0.0652 for the second.

First: CGCACATA
Second: AGAGAGCT
The “PBM E-score” value of the first is lower: -0.244 for the first, -0.158 for the second.

First: CCAGGCCG
Second: CTCGTCTA
The “PBM E-score” value of the first is higher: 0.039 for the first, -0.194 for the second.

Compared with AAGTACAC, AAGCAATA is lower in “PBM E-score” value: 0.0171 for the first, 0.0028 for the second.

Going from ATAGGCCC to AACGGCTA, the “PBM E-score” value falls from 0.126 to -0.149.

Going from GTCCTCAC to GGCAGAAA, the “PBM E-score” value rises from -0.139 to 0.121.

Compared with CGCTAGTC, GTTTTTCA is higher in “PBM E-score” value: -0.27 for the first, 0.217 for the second.

Going from AGTTCCGC to ACGAGGAT, the “PBM E-score” value falls from 0.0333 to -0.149.

Compared with CTCCTTAC, AGCGTCCT is lower in “PBM E-score” value: -0.0238 for the first, -0.135 for the second.

Going from ACATTAAC to ACTGCTCA, the “PBM E-score” value falls from 0.202 to -0.00239.

First: GGTCCTTA
Second: AGATTCCG
The “PBM E-score” value of the first is lower: 0.0224 for the first, 0.162 for the second.

First: GCGGGCCC
Second: CCCTCTTC
The “PBM E-score” value of the first is higher: 0.0394 for the first, -0.0279 for the second.

First: ATTCCCAA
Second: TGACTCAA
The “PBM E-score” value of the first is higher: 0.14 for the first, -0.0949 for the second.

Going from ATCCAAAT to GAAAACCA, the “PBM E-score” value rises from 0.0589 to 0.214.

Compared with ATCGCATA, ATGGGATA is lower in “PBM E-score” value: 0.0659 for the first, -0.0812 for the second.

Compared with GGTTTGGA, AGTTATGC is lower in “PBM E-score” value: 0.179 for the first, 0.143 for the second.

Going from ACCGCCTA to ACAGCACC, the “PBM E-score” value falls from -0.0957 to -0.172.

First: CCATTTTC
Second: CATATTAA
The “PBM E-score” value of the first is lower: 0.0892 for the first, 0.184 for the second.

First: ACAGCCGG
Second: ACCAAGCA
The “PBM E-score” value of the first is lower: -0.00808 for the first, 0.0769 for the second.

Going from CAGTGAAA to ATGTCTGA, the “PBM E-score” value falls from 0.197 to 0.179.

Going from AAGCTCGA to ACTGTTAC, the “PBM E-score” value rises from 0.0599 to 0.124.

First: CTAATTCA
Second: CGCATGTA
The “PBM E-score” value of the first is higher: 0.128 for the first, -0.0582 for the second.

First: CGTACAAG
Second: ATGTCGTG
The “PBM E-score” value of the first is higher: -0.0142 for the first, -0.203 for the second.

Compared with AGTTATAA, AGGAGAAC is lower in “PBM E-score” value: 0.133 for the first, -0.152 for the second.

Going from CGTTGTAC to ATGGAGTA, the “PBM E-score” value falls from 0.0278 to -0.106.

Going from CCGCATAC to GGTCAGCA, the “PBM E-score” value rises from 0.0672 to 0.224.

Compared with GCGTATAC, ATCCAGCA is lower in “PBM E-score” value: 0.146 for the first, -0.0382 for the second.

First: ATACACTC
Second: CTCAAGGC
The “PBM E-score” value of the first is higher: 0.0368 for the first, -0.0817 for the second.

Going from CAACGTCG to GACGCGGA, the “PBM E-score” value falls from -0.0477 to -0.0862.

First: ATGTGCTC
Second: ATCCCATG
The “PBM E-score” value of the first is lower: -0.118 for the first, 0.0232 for the second.

Compared with AATTCTGA, GTCCTCAA is lower in “PBM E-score” value: 0.229 for the first, -0.0951 for the second.

Going from CGGGTCCC to GTGAGGGA, the “PBM E-score” value falls from -0.199 to -0.277.

First: TAAGCACA
Second: ATGATTCC
The “PBM E-score” value of the first is lower: -0.025 for the first, 0.102 for the second.

Compared with GAGTCGAA, ACTTTACC is lower in “PBM E-score” value: 0.16 for the first, 0.108 for the second.

First: TGGGATAA
Second: TCCTAGGA
The “PBM E-score” value of the first is higher: -0.051 for the first, -0.147 for the second.

First: GGCGCGTA
Second: GATATTCC
The “PBM E-score” value of the first is lower: -0.0805 for the first, 0.00474 for the second.

Going from CCCCCCTA to CGCATATA, the “PBM E-score” value rises from -0.141 to 0.0722.

Going from TATGCACA to AGAGCTCG, the “PBM E-score” value rises from -0.111 to -0.0466.

Compared with GTCTCGGA, AGGCTTGC is lower in “PBM E-score” value: 0.0796 for the first, -0.248 for the second.

First: CCTGATAG
Second: ATCGGTCC
The “PBM E-score” value of the first is lower: -0.147 for the first, -0.0969 for the second.

First: CCAGCATA
Second: ACACTTCA
The “PBM E-score” value of the first is higher: 0.0424 for the first, -0.0403 for the second.

First: CTTCAGGA
Second: AGTCAAAA
The “PBM E-score” value of the first is lower: 0.092 for the first, 0.207 for the second.

First: GAAAGTAA
Second: AAGTGACG
The “PBM E-score” value of the first is higher: 0.14 for the first, 0.0316 for the second.

Going from ACCGCCAG to CCCATAGA, the “PBM E-score” value falls from 0.171 to -0.143.

Compared with CGCTAAAA, GTGCGCAC is higher in “PBM E-score” value: 0.135 for the first, 0.355 for the second.

Compared with ACATCGGT, AAGAGCAA is higher in “PBM E-score” value: -0.116 for the first, 0.0033 for the second.

Going from TAAAGTAA to ACCTCAAG, the “PBM E-score” value falls from 0.175 to 0.0479.

Compared with CATTGAAC, AATGACAT is higher in “PBM E-score” value: 0.0664 for the first, 0.0705 for the second.

Compared with CTTCATGC, AGCGTCAC is higher in “PBM E-score” value: -0.224 for the first, -0.132 for the second.

First: CTTGACCC
Second: AGATCAGG
The “PBM E-score” value of the first is lower: -0.129 for the first, -0.124 for the second.

Compared with GTTCTATA, GAGGTGGA is lower in “PBM E-score” value: 0.0445 for the first, -0.131 for the second.

Compared with GCCGAGGA, ACCGAAGG is lower in “PBM E-score” value: 0.162 for the first, -0.251 for the second.

Compared with AGAAGTAT, CGCGTAGA is lower in “PBM E-score” value: 0.156 for the first, -0.0217 for the second.

Compared with GGAGCAGA, AGAAGGTC is higher in “PBM E-score” value: -0.0933 for the first, -0.0684 for the second.

Going from CATACCTA to ACGTGCCG, the “PBM E-score” value falls from 0.0133 to -0.00448.

First: CAATAGAG
Second: AGCACGGG
The “PBM E-score” value of the first is lower: -0.0569 for the first, 0.0104 for the second.

First: CCCCCGGG
Second: TCGTGACA
The “PBM E-score” value of the first is lower: -0.0357 for the first, 0.141 for the second.

Compared with CTGGAAAA, ACCACAGC is lower in “PBM E-score” value: 0.0857 for the first, -0.153 for the second.

Compared with CTGCGGAC, CTAGTTAA is higher in “PBM E-score” value: -0.228 for the first, -0.0553 for the second.

Compared with AACTCGGC, GGGTCCAC is lower in “PBM E-score” value: 0.111 for the first, -0.322 for the second.

Compared with ACTGCAGA, AGATAGGC is higher in “PBM E-score” value: -0.0913 for the first, 0.0647 for the second.

Compared with CCTCGTCG, CAGGGGTC is lower in “PBM E-score” value: 0.0143 for the first, -0.119 for the second.

First: TGGAGCCA
Second: AAGACTGG
The “PBM E-score” value of the first is lower: -0.186 for the first, -0.13 for the second.

Going from CGACAGAG to CGAGTCCG, the “PBM E-score” value rises from 0.00598 to 0.0966.

Compared with TACTAAGA, GTGGAACA is higher in “PBM E-score” value: 0.0543 for the first, 0.144 for the second.

Going from CTGCCGGC to AGAAATTA, the “PBM E-score” value rises from -0.0671 to 0.123.

First: AGAGGAGA
Second: CAACGAAC
The “PBM E-score” value of the first is lower: -0.212 for the first, 0.0512 for the second.

Going from AACTACTT to CAAGCGGG, the “PBM E-score” value falls from -0.00699 to -0.166.

Compared with GGGGTCAC, CACAGGTA is higher in “PBM E-score” value: -0.101 for the first, 0.0125 for the second.

Compared with CTACCTAC, TAGATTGA is higher in “PBM E-score” value: -0.143 for the first, 0.0662 for the second.

Compared with CCATATCG, ACTAAGCC is lower in “PBM E-score” value: 0.0636 for the first, -0.102 for the second.

Going from ACCCTTCA to CCTTATAG, the “PBM E-score” value rises from -0.0288 to 0.0705.

Compared with ATGCCGGA, GGCCGGTA is higher in “PBM E-score” value: -0.0366 for the first, 0.0473 for the second.

Compared with TAAGGGTA, CAATAACC is higher in “PBM E-score” value: -0.164 for the first, 0.116 for the second.

Going from TCTCCCCA to TACCCACA, the “PBM E-score” value falls from 0.00114 to -0.104.

Compared with GAAACAGA, ATGCCGAG is lower in “PBM E-score” value: 0.287 for the first, 0.0547 for the second.

First: CCGGCTCA
Second: CAGGCCGC
The “PBM E-score” value of the first is higher: 0.062 for the first, -0.24 for the second.

First: GTAAATTA
Second: ACCTTCAG
The “PBM E-score” value of the first is higher: 0.18 for the first, -0.148 for the second.

Going from TGGTTACA to ATACCTTC, the “PBM E-score” value falls from 0.128 to 0.0612.
